Data on 1 substance can be found in patent US7964221B2, “Composition and methods of use of an immunomodulator” (priority 2006, dated 2011).

The test system of the assay is opportunistic infections (OI) and co-infections.

Consider “zidovudine (AZT), lamividine (3TC), and efavirenz (EFV) [AZT/3TC/EFV]”, for which the “Patients with opportunistic infections (OI)” value (32 week reporting period) is recorded as 6 (30%) N(%). Also, under “32 weeks treatment period”, the Cachexia is 3(15%) N(%), the Herpes was 4 (20%) N(%) and the Oral/esophageal candidiasis is recorded as 4 (20%) N(%). Moreover, the “Hepatitis C” value (32 weeks treatment period, relapses) was 2 (10%) N(%).
